The source of these data is article PMC12040169 (PLOS Biology, 2025).

The list shows a part of the results.

This assay relates to T1, C. trachomatis L2/434/Bu expressing GFP (CTL2-GFP).
T1 construct: L2/434/Bu GFP intracellular growth in HeLa cells
Also noted: species or system HeLa; C. trachomatis total inclusion area by high-content imaging, normalised to DMSO. The note with it: total inclusion area; 28.5 h, 10 µM; inhibitor. The method in brief:
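Bulk GFP and resorufin signals were read first. Wells were then fixed, stained with Hoechst and imaged to detect GFP inclusions and host nuclei. MICs followed the previously described calculation.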
Regarding `CCN(CC)C(=O)CN1CCC(Oc2cncc(OCc3cccnc3)n2)C1` (stereo not shown) [CBK084461], the “% of control remaining” value was determined as 81.1355. As to `CCOC(=O)c1[nH]c2ccccc2c1NC(=O)Cc1c(Cl)cccc1Cl` [CBK160132], the “% of control remaining” value was found to be 92.0234. In the case of `COc1cc(NC(=O)c2cc([N+](=O)[O-])ccc2N2CCOCC2)ccc1-c1cc2ccccc2oc1=O` [CBK269128] it was 83.1624; in that of `Cc1nnc(-c2cc(CCC(C)C)n(-c3cccc(C(=O)N4CCCCC4)c3)n2)o1` [CBK114689], 79.3305. Take `N#Cc1cccnc1SC(C(=O)O)c1ccccc1` (stereo not shown) [CBK286614]: the “% of control remaining” value was found to be 76.5445.

Regarding `COc1ccc(-c2nnc(S)n2/N=C\c2ccc(C(=O)O)cc2)cc1` [CBK264419], the “% of control remaining” value amounted to 119.945. In the case of `Cc1csc(C(Cc2ccsc2)NC(=O)c2cnn(C)c2C)n1` (stereo not shown) [CBK285148] it was 106.325. In the case of `COc1ccc(CCC(=O)N2CCC(c3cccc(Cc4cccc(F)c4)n3)CC2)cc1` [CBK286212] it was 92.0793; in that of `Cc1cc(NC(=O)c2sc3nc4c(cc3c2N)N2CCC4CC2)no1` [CBK270217], 60.17. In the case of `CC(C)N1C(=O)[C@@H]2CN(C(=O)C3CCCC3)CCN2C1=O` [CBK289612] it was 109.043.

For `O=C(NCc1cn2ccccc2n1)c1ccc(C2SCCS2)cc1` [CBK295167], the “% of control remaining” value is listed as 93.8858. As for `O=C(C1CN(C(=O)Cn2ncc(=O)c3ccccc32)c2ccccc2O1)N1CCCCC1` (stereo not shown) [CBK297115], the “% of control remaining” value is on record as 96.2985.

Take `O=[N+]([O-])c1ccccc1S(=O)(=O)N1CCN(S(=O)(=O)Cc2ccccc2)CC1` [CBK264230]: the “% of control remaining” value is 104.559.

As for `COc1ccccc1CC(C)NC(=O)c1cc(C2CC2)nn1C` (stereo not shown) [CBK283290], the “% of control remaining” value is 81.446. In the case of `COc1ccc(OC)c(NC(=O)c2cc(=O)[nH]c3ccccc23)c1` [CBK297521] it was 101.785; in that of `COC(=O)N1CCC(C(=O)NC(c2ccccc2)c2ncccc2C)CC1` (stereo not shown) [CBK059885], 89.365. In the case of `OCCNc1nc(Nc2ccc(Br)cc2)nc2ccccc12` [CBK266724C] it was 0.8015; in that of `Cc1cc2c(o1)c1cnn(CC(=O)N3CCC(C)CC3)c(=O)c1n2C` [CBK284236], 76.4252. For `O=C(c1csc2c1CCCC2)N1CCC(O)(c2ccccn2)CC1` [CBK282397], the “% of control remaining” value was determined as 72.0864. In the case of `O=C(NCCc1ccccc1)c1c(NC(=O)C2COc3ccccc3O2)sc2c1CCCC2` (stereo not shown) [CBK265522] it was 88.2872; in that of `CCN1CCN(Cc2cc(Cl)ccc2OCCCn2ccnc2)CC1` [CBK306990], 87.4369; in that of `CCCC(=O)Nc1ccccc1NC(=O)c1cccc([N+](=O)[O-])c1C` [CBK267398], 104.642. In the case of `Cc1cc(C(=O)NCCCN(C)C)ccc1[N+](=O)[O-]` [CBK262467] it was 100.626; in that of `COc1cc2c(cc1NS(=O)(=O)N1CCCCC1)oc1ccccc12` [CBK268355], 110.679; in that of `COc1ccc2c(c1)CCC(c1ccccc1)=C2c1ccc(OCC(O)CN)cc1` (stereo not shown) [CBK015723C], 12.1226. In the case of `Cn1c(CCNC(=O)c2cccs2)nc2cc([N+](=O)[O-])ccc21` [CBK268511] it was 109.529.

With `CC1(C)Cc2c(cnn2-c2ccccc2)C(NS(=O)(=O)C2CC2)C1` (stereo not shown) [CBK307351], the “% of control remaining” value turned out to be 76.9263.

As for `Cc1ccc(Oc2ccc(CNC(=O)c3sc4nc[nH]c(=O)c4c3C)cc2)cc1` [CBK285857], the “% of control remaining” value is 83.9615. In the case of `COCC(=O)Nc1cc(OC)c(Cl)cc1OC` [CBK264448] it was 110.554; in that of `O=C1OC(c2ccccc2)=C/C1=C1/C(=O)Nc2ccccc21` [CBK115375], 96.6396.

Turning to `COCC(C)NC(=O)c1cnn2c(C(F)(F)F)cc(-c3cccs3)nc12` (stereo not shown) [CBK307417], the “% of control remaining” value was determined as 108.567. `O=c1[nH]c(-c2ccccc2)nc2c1CN(Cc1cccs1)CC2` [CBK282330]: the “% of control remaining” value was found to be 102.716. In the case of `O=C(NCC1CCOCC1)c1cc(-c2cccnc2)cnc1NCc1ccc2c(c1)OCO2` [CBK154825] it was 107.207; in that of `Cn1cc(-c2ncc(OCCOc3ccccc3)nc2N)cn1` [CBK145171], 91.4272; in that of `O=C(Nc1nonc1-c1nc2ccccc2n1CCOC(=O)c1ccc(F)cc1)c1ccc(F)cc1` [CBK062653], 103.429. In the case of `Cc1noc(C)c1C(=O)N1CCC[C@@H](C(=O)c2ccccc2F)C1` [CBK282249], the “% of control remaining” value stood at 84.5763. In the case of `COc1ccccc1N1CCN(CCC(=O)Nc2ccc(Br)c(C)c2)CC1` [CBK264218] it was 90.6127. Consider `COc1ccc([C@H]2CN(C(=O)c3ccccc3)[C@@H]3CCN(Cc4cccs4)C[C@H]23)cc1` [CBK285582], for which the “% of control remaining” value is on record as 80.8126.

As to `C=Cn1cc(CN2CCCC(c3cc4cccnc4[nH]3)C2)c(C)n1` (stereo not shown) [CBK284944], the “% of control remaining” value is recorded as 61.9343. Turning to `Cc1n[nH]c(NC(=O)/C=C/C(=O)O)c1-c1ccc(F)cc1` [CBK287068], the “% of control remaining” value is given as 94.357. In the case of `O=C(Cc1ccc(-c2ccccc2)cc1)N1CCC2(CC1)Nc1ccccc1S(=O)(=O)N2` [CBK286189] it was 109.085; in that of `COc1ccc2[nH]c3c(c2c1)CCNC31CCN(CCCN2C(=O)C3CCCCC3C2=O)C1` (stereo not shown) [CBK059518], 158.988; in that of `O=S(=O)(Nc1cccc(-c2nnn[nH]2)c1)c1ccc(Br)s1` [CBK160377], 95.872. For the molecule `CN(C)S(=O)(=O)N(CC(=O)Nc1ccccc1C(F)(F)F)c1ccccc1` [CBK268665], the “% of control remaining” value came to 120.008. On to `O=C(Oc1ccccc1)c1cc(Cl)cnc1Cl` [CBK090320], for which the “% of control remaining” value was found to be 80.4458.

In the case of `Oc1ccc(-n2cc(-c3ccccc3C(F)(F)F)nn2)cc1` [CBK112971], the “% of control remaining” value worked out at 80.5538. On to `CCC(=O)NCc1ccc(-c2cc(CN(C)C)n(C)n2)cc1` [CBK281668], for which the “% of control remaining” value came out at 98.1826. Regarding `NC(=O)Cn1c(=O)n(CCc2ccccc2)c(=O)c2c3c(sc21)CCCC3` [CBK267665], the “% of control remaining” value amounted to 87.3299.

As for `CC(C)C(=O)Nc1sc2c(c1C(=O)NCc1cccnc1)CCC2` [CBK306144], the “% of control remaining” value turned out to be 67.2645. For the molecule `Cc1ccc(S(=O)(=O)Nc2sc3c(c2C(=O)N2CCN(C)CC2)CCCC3)cc1[N+](=O)[O-]` [CBK028650], the “% of control remaining” value is 102.852. In the case of `CN(C)S(=O)(=O)Nc1ccccc1C(N)=O` [CBK264382] it was 91.2563. In the case of `Cc1cc(=O)[nH]c(CCNc2cc([C@H]3C[C@@H](N)C3)nc(C3CC3)n2)n1` [CBK307651] it was 43.6978; in that of `Cc1nc(C(Cc2ccsc2)NC(=O)Cn2ccnc2)sc1C` (stereo not shown) [CBK284777], 97.7626; in that of `O=C(NC1CCc2ccccc21)N1CCN(Cc2ccccc2)CC1` (stereo not shown) [CBK155662], 97.8052. With `O=C1CC2(CCN(S(=O)(=O)Cc3ccc(Cl)cc3)CC2)CN1` [CBK283355], the “% of control remaining” value turned out to be 75.9806. In the case of `O=C(Cc1c[nH]c2ccccc12)N1CCCC1c1ccc(F)cc1` (stereo not shown) [CBK297927] it was 108.075; in that of `CSc1ccc(CN(CCO)CCO)cc1` [CBK261931], 89.8269; in that of `CC(CNC(=O)C(C)(C)C)NC(=O)C(C)(C)C` (stereo not shown) [CBK265443], 78.7391. Regarding `O=C(O)C1C2C=CC(C2)C1C(=O)N1CCN(Cc2ccccc2Cl)CC1` (stereo not shown) [CBK270334], the “% of control remaining” value stood at 85.1031.

`Cc1cccc(C(=O)Nc2cc(NC(=O)c3cccc(C)c3)cc(C(=O)O)c2)c1` [CBK269649]: the “% of control remaining” value is 91.6143. Take `CCOC(=O)CN1CCC(Oc2nccnc2OCC2COc3ccccc3O2)CC1` (stereo not shown) [CBK082989T]: the “% of control remaining” value came to 105.489. With `COCCC(=O)Nc1cnc(-c2ccc(F)c(Cl)c2)c(-c2cccnc2)n1` [CBK036938], the “% of control remaining” value came out at 131.874. With `CC(NC(=O)N(Cc1ccc(-c2ccccc2)cc1)CC(C)(C)CN)c1cccc2ccccc12` (stereo not shown) [CBK002426C], the “% of control remaining” value was 1.447.

For the molecule `Fc1cc(Br)c(CNCc2cocn2)c(N2CCCCC2)c1F` [CBK304792], the “% of control remaining” value stood at 68.2368. In the case of `CN1CCN(Cc2c(-c3ccc(F)cc3)[nH]c3ncccc23)CC1` [CBK285335] it was 91.6997; in that of `CN1CCN(C(=O)CNS(=O)(=O)c2cc(Br)c(Cl)s2)CC1` [CBK034482], 70.7246. In the case of `N#Cc1cccc(Nc2cncc(-c3cccs3)n2)c1` [CBK066030] it was 114.304; in that of `COc1ccc(C(=O)N2C[C@H]3Cc4c(n[nH]c4C(F)F)[C@H]3C2)s1` [CBK283425], 106.45. As to `CN1CCCc2cc(CN3CCC4(CCCNC4=O)CC3)ccc21` [CBK284876], the “% of control remaining” value turned out to be 95.4215.

Take `O=C1NC(=O)C(CC(=O)N2CCC3(CCN(Cc4ccccc4)C3)C2)N1` (stereo not shown) [CBK136850]: the “% of control remaining” value is on record as 72.4296. As to `CCc1nn(CC(=O)N2CCCC2)c(=O)c2cc3oc(C)cc3n12` [CBK283584], the “% of control remaining” value was 111.411.

In the case of `CCOc1ccc(-n2c(SCC(=O)Nc3cc(C(=O)O)ccc3Cl)nc3ccccc3c2=O)cc1` [CBK297512], the “% of control remaining” value was determined as 79.298.

In the case of `COCc1cccc(-c2nccnc2OC)c1` [CBK106956], the “% of control remaining” value came out at 126.979. In the case of `CC(=O)Nc1cccc(-n2nnnc2SCC(=O)N2CCNC2=O)c1` [CBK305043] it was 84.3299; in that of `Cc1cc(C(F)(F)F)nc(SCC(=O)N2c3ccccc3Sc3ccccc32)n1` [CBK268078], 67.7211.

As to `NS(=O)(=O)c1ccc(CCNC=C2C(=O)c3ccccc3C2=O)cc1` [CBK262997], the “% of control remaining” value is 106.572.

Turning to `Cc1csc2c(C3CCN(C(=O)C4CC4)CC3)nc(C)n12` [CBK285241], the “% of control remaining” value stood at 94.2144. Regarding `CCCC/C=C/c1nccnc1N[C@@H](C)c1ccccc1` [CBK037138], the “% of control remaining” value worked out at 107.087. As for `Cc1ccc2oc([C@H]3CCN(S(C)(=O)=O)C3)nc2c1` [CBK289371], the “% of control remaining” value was found to be 95.2976.
